± gives the standard deviation of the averaged measurements. This is one part of the list.
System: PfAP2-EXP AP2 domain (GST-tagged)
Assay: gcPBM binding intensity (ln(normalized median fluorescence intensity)); higher = stronger DNA binding
Outline: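 GST-fused DNA-binding domains of P. falciparum, expressed in E. coli, were applied at about 25 μg on average for 1 h to an Agilent 4 × 180k array of primer-extended double-stranded 36-bp intergenic genomic probes and negative controls. Binding intensity is the highest Masliner-normalised natural-log median intensity across replicate spots of either probe orientation, measured with Alexa488 anti-GST antibody and a 488 nm scan.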

“GTACCTATTTCATACACACACACACCCAAACAAACA [CACACA_site976]” and “CATTTGCACCCGCACACACACATAAAAAGAAAAATA [CACACA_site4350]” are within error of each other in “gcPBM binding intensity (ln)” value: 8.99 ± 0.4 for the first, 9.37 ± 0.52 for the second.

“TAATTTTTTTTAATAACACACATATAAATATAAATA [CACACA_site6521]” and “CTTGTACCTAGAAATACACACAATTCTATAACTTAT [CACACA_site7355]” are within error of each other in “gcPBM binding intensity (ln)” value: 8.17 ± 0.45 for the first, 8.47 ± 0.2 for the second.

“AATGTAGAAATGGGTGCACACACATATATAATATAT [CACACA_site8799]” and “AATGTGTAGACACGCACACACAAAAAAATATATATA [CACACA_site5595]” are within error of each other in “gcPBM binding intensity (ln)” value: 9.12 ± 0.15 for the first, 8.63 ± 0.41 for the second.

“GTTTTATTTTCAATGTGTACTTATTATTTGATATAC [XGTACX_site6402]” and “TATAAAAATATTTCTACACACATTAAAATATATATA [CACACA_site4770]” are within error of each other in “gcPBM binding intensity (ln)” value: 8.87 ± 0.23 for the first, 8.3 ± 0.37 for the second.

Going from “CATTTGCCCAGGCACACACACATAAAAAGAAAAATA [CACACA_site356]” to “AATGAAAGGATGCTGTGTACATATATATATATATAT [XGTACX_site7901]”, the “gcPBM binding intensity (ln)” value rises from 8.4 ± 0.55 to 10.2 ± 0.49.

First: TGGTCTTTTAAACAAAAATATAAATTTTTAAATATG [CACACA_negctrl_site392]
Second: AATTTAATATAATGCACACATAAAAAAAAAAAATTC [CACACA_site1504]
The “gcPBM binding intensity (ln)” value of the first is lower: 8.13 ± 0.42 for the first, 8.85 ± 0.12 for the second.

“AGCTTGTGGATGCAGGTGCTACATTTGTTCTATAAT [GTGCAC_site9645]” and “AAGAAAATTGTCTGAAGTACAAAACATTAATAATAT [XGTACX_site4864]” are within error of each other in “gcPBM binding intensity (ln)” value: 8.58 ± 0.33 for the first, 8.74 ± 0.34 for the second.

“AAGATAAATTATTATAAATCAATTGTGCCAACAATA [CACACA_negctrl_site144]” and “TTTTTTTTGTGTTCAAGTACAAAATTTTAAAGGTCA [XGTACX_site4011]” are within error of each other in “gcPBM binding intensity (ln)” value: 8.21 ± 0.23 for the first, 8.26 ± 0.35 for the second.

Going from “GGTTATTTCACAGAATGTACTTATTATATATAAAAT [XGTACX_site8886]” to “TATATATATATATAAGCACACAAACAAAAAAAATTA [CACACA_site9293]”, the “gcPBM binding intensity (ln)” value rises from 8.49 ± 0.37 to 10.1 ± 0.17.

“TGTAGAACTCAATATTGTACATTATATAAAATGGGA [XGTACX_site3857]” and “TTTAAATATATATATTGTACAAAAAAAAATAATAAA [XGTACX_site4759]” are within error of each other in “gcPBM binding intensity (ln)” value: 8.73 ± 0.2 for the first, 8.71 ± 0.42 for the second.

“ATAAAATTTATGACTTGTACATGTAAATAAAATATA [XGTACX_site762]” and “TTTTTTTGCATTTCATGTACATATATTGAGCTTAAA [XGTACX_site8485]” are within error of each other in “gcPBM binding intensity (ln)” value: 8.86 ± 0.35 for the first, 9.14 ± 0.52 for the second.

Compared with “ATATATATATATTGTACACACATTTATGCATATATA [CACACA_site5738]”, “GCCTTTTAGTATTTCACACACGTAAATGAGTATATC [CACACA_site4748]” is lower in “gcPBM binding intensity (ln)” value: 9.97 ± 0.3 for the first, 8.79 ± 0.4 for the second.

With “CTTCTTGTAAAATTTGCATGTAATTAAAAGAGAATG [TGCATGCA_site484]” the “gcPBM binding intensity (ln)” value was 8.77 ± 0.28.
